# In patent US8613927B2, “High affinity human antibodies to human nerve growth factor” (Regeneron Pharmaceuticals, Inc., priority 2007, dated 2013):
# Target: T1, human NT-3 (Homo sapiens, UniProt P20783)
# T1 sequence (P20783 139-257): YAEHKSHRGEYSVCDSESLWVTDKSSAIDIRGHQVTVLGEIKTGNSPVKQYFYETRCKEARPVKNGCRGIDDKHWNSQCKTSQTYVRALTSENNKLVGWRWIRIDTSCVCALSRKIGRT
# Experiment: BIACORE cross-reactivity test, NT-3
# Assay type: binding
# Details: NT-3 1.25 nM to 40 nM; purified antibodies
# Experimental: The anti-NGF antibodies were examined for binding cross-reactivity with human NT-3. Briefly, goat anti-human IgG polyclonal antibody was chemically linked to a CM5 chip. Anti-NGF monoclonal antibodies were injected forming a surface of about 50 to 900 RU of immobilized antibody through the interaction with the chip coupled polyclonal antibodies. […] Both association and dissociation phases were monitored and data were analyzed. Results are shown in Table 3 (NB=no binding activity observed).
molecule,measurement,value
REGN476: HCVR/LCVR SEQ ID NO:224/226 and mutant hIgG4 SEQ ID NO:543 (antibody) heavy: EVQLVESGGGLVQPGRSLRLSCAAPGFNFDDYAMHWVRQAPGKGLEWVSGISWNSGTIGYADSVKGRFTISRDNAKNSLYLQMNSLRAEDTALYYCAKEGVWFGKLFSSYGMDVWGQGTTVTVSSASTKGPSVFPLAPCSRSTSESTAALGCLVKDYFPEPVTVSWNSGALTSGVHTFPAVLQSSGLYSLSSVVTVPSSSLGTKTYTCNVDHKPSNTKVDKRV[human IgG4 Fc with S228P (EU numbers) omitted here] VL: EIVMTQSPATLSVSPGERATLSCRASQSVTYNLDWYQQKPGQAPRLLIYGASTRATGIPARFSGSGSGTEFTLTISSLQSEDFAVYYCQQYNNWPYTFGQGTKLEIKR,affinity for NT-3,none of the test antibodies exhibited measurable affinity
